Data reported in the RNAGym collection of RNA variant scans (doi:10.1093/nar/gkz1192).
Read counts are not given, so values of variants with three or more changes are uncertain.

B1: CPEB3 Ribozyme (parent)
chain: UAACAGGGGGCCACAGCAGAAGCGUUCACGUCGCAGCCCCUGUCAGAUUCUGGUGAAUCUGCGAAUUCUGCUGUAUAUCUC

Variants of: B1
Assay: self-cleavage, relative activity (ratio to wild type); higher = more cleavage; in vitro, sequencing
Summary of the method: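 Libraries of CPEB3 self-cleaving ribozyme mutants came from rounds of error-prone PCR and carried barcodes, which DNA sequencing matched to variants. In vitro transcription used T7 RNA polymerase at 37°C for 5 hours, with a further 15 min in DNase I before EDTA stopped the reaction; the ribozymes cleaved during both steps. The RNA was reverse transcribed with template switching and sequenced on Illumina. Relative activity is the cleaved/total read fraction of a variant divided by that of the unmutated ribozyme, averaged over three batches with at least 5 reads.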

Variant	self-cleavage
A3G A35U U41A U60C U80A	0.06
A3G A35U U41C	0.66
A3G A35U U48C G52A U66C C68G	0.21
A3G A35U U48C U54A U69C U80G	0.15
A3G A35U U49C U51A A56G U58C U80A	0.07
A3G A35U U51A U60A	0.36
A3G A35U U51C	0.59
A3G A35U U60A U67C	0.17
A3G A35U U74A	1.05
A3G A45G A56U A57G U67C	0.23
A3G A45G A64U	0.27
A3G A45G C62G A65G U72C A77U	0.29
A3G A45G G70C	0.2
A3G A45G U48C	0.19
A3G A45G U48C A64G	0.41
A3G A45G U48C U69G	0.15
A3G A45G U49C	0.4
A3G A45G U54A	0.87
A3G A45G U54C C81U	1.01
A3G A45G U67C	0.3
A3G A45U A47G U48C U67C	0.28

Variant	self-cleavage
A3G A45U G53C	0.6
A3G A45U U49A U51C	0.14
A3G A45U U72C	0.45
A3G A47C U49C G55C U69A	0.22
A3G A47C U49C U67A A77G	0.07
A3G A47G U49C	0.37
A3G A47G U49C U67A	0.09
A3G A47G U58C A64U	0.48
A3G A47G U60C U76C	0.59
A3G A47G U80C	1.05
A3G A47U A56U A64G U72A	0.08
A3G A47U A57G U72A	0.16
A3G A47U U48C U60C U69C	0.27
A3G A47U U72C U76C	0.33
A3G A56C A65G	0.26
A3G A56G A57G U60A	0.27
A3G A56G A64C	0.32
A3G A56G C62U U66C U69A U72C	0.4
A3G A56G G63A	0.83
A3G A56G U72A	0.8
A3G A56U U69A	0.55

Variant	self-cleavage
A3G A57U A65G U76C	0.12
A3G A57U U60C U76A	0.32
A3G A64U A77G	0.38
A3G A64U U66C	0.25
A3G A64U U80C	0.4
A3G A65G U72C	0.62
A3G A65G U76A	0.29
A3G C4G A5G	0.7
A3G C4G A15G A20U A47G U58C C81U	0.21
A3G C4G A15U U26C G36A U54C U60C	0.3
A3G C4G U31C A45G A64G	0.3
A3G C4U A5G	0.82
A3G C4U A13G U51A	0.35
A3G C4U U66A	0.74
A3G C4U U67C U69C	0.3
A3G C11A A45U U49C A57G U80C	0.51
A3G C11A U31C A45U	0.07
A3G C11G A13G U25C U31A	0.71
A3G C11G A15G G36C U67G	0.23
A3G C11G A15U A18U C40A A64G U72C	0.07
A3G C11G A18U A21G A56U A64U	0.06

Variant	self-cleavage
A3G C11G A35U G52C U60A U69C U78C	0.08
A3G C11G U25C G30A A35G	0.33
A3G C11G U25C U41C U43C	0.05
A3G C11G U25C U48C	0.08
A3G C11U A47G	0.65
A3G C11U U25A U51C A56G U60C U74C	0.18
A3G C11U U26C C40G U43C A77G	0.08
A3G C12A A15G C23G A57G	0.54
A3G C12A C23G C32U U41A U60C U67A	0.1
A3G C12G A13U G19C U31C A35G U69C	0.26
A3G C12G A15G U25C A28G G52A A65G	0.17
A3G C12U G33A G61A	0.04
A3G C12U U25A U31C U48C C50U U72C	0.13
A3G C12U U43A U67C	0.64
A3G C12U U43C C44U A56G U58C	0.1
A3G C12U U48C U74C	1.21
A3G C14U A35G	1.28
A3G C14U G63A	0.55
A3G C14U U25A U26A C34A U48C U72C	0.06
A3G C14U U25C A35G	0.83
A3G C14U U51C A64G	0.9
